Values marked as one replicate rest on one cluster of the flow cell; about a third of the high ones do not repeat.

This passage reports switch fluorescence ratio results from the supplement of paper PMC10126150.

This series deals with ATP. Description: switch fluorescence ratio, 500 uM ATP over buffer (Cy3 cluster intensity, sum of 5 cycles each) (fold (ratio)); higher = stronger signal-on switching upon ATP binding; sequences stand for … in TCGTCGGCAGCGTCAGATGTGTATAAGAGACAGTTTTTTTTTTTTTTTTTTTTTTTTT…TC. The conditions noted are these: aptamer strand: ATP DNA aptamer (quencher-CACCTGGGGGAGTATTGCGGAGGAAGG + anchor), 100 nM annealed; ATP concentration: 500 uM; one replicate. An outline of the steps: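 Five buffer/ATP imaging cycles were run on Cy3-labelled switching-strand clusters on a modified Illumina MiSeq flow-cell, with NaOH stripping and re-annealing between cycles. In each cycle, clusters annealed to 100 nM quencher-labelled ATP aptamer were imaged in selection buffer, then after 15 min with 500 uM ATP at 22 °C. Per cluster, the fluorescence ratio is summed target-cycle over summed buffer-cycle Cy3 intensity, averaged per switch-domain sequence. Only clusters within 100-1000 RFU were kept.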
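Note: ATP exposure 15 min at 22 °C before imaging.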

On to CAGGCGGGAT, for which the switch fluorescence ratio came to 1.03.
Regarding ACTCGTACGT, the switch fluorescence ratio was 1.08.
On to TCACGCACCT, for which the switch fluorescence ratio turned out to be 1.85.
The result for TTTTTCCACT reads 0.963; that for GTAGGGCTTG, 0.991.
Take TTAAGGGGC: the switch fluorescence ratio was found to be 1.07.
For the sequence GTGGGTGAGA, the switch fluorescence ratio was 1.02.
As for TATGCGATCG, the switch fluorescence ratio was 0.969.
Take CGGTGGGGCT: the switch fluorescence ratio stood at 0.992.
With AATTCGCACA, the switch fluorescence ratio was determined as 1.58.
Regarding CGGAAAGGA, the switch fluorescence ratio came out at 0.963.
On to TAGGTGGTGT, for which the switch fluorescence ratio turned out to be 1.
In the case of AGGTTACAGG it was 1.05; in that of GCCCCAACGA, 0.961.
Turning to ATTGTGAAG, the switch fluorescence ratio was found to be 1.
As to ATATCTTCGG, the switch fluorescence ratio stood at 1.07.
For AAAGGGGACT, the switch fluorescence ratio stood at 1.01.
Take ACCGGTGCTC: the switch fluorescence ratio was determined as 1.12.
Take CTCGGAGGTG: the switch fluorescence ratio is 1.04.
For TATTCATGAA, the switch fluorescence ratio was found to be 0.97.
For TAACATGCAC, the switch fluorescence ratio is 1.14.
With TATAGCGTCT, the switch fluorescence ratio is 0.963.
With GAGAACCCAT, the switch fluorescence ratio came to 1.01.
For TTTACAAGCT, the switch fluorescence ratio came to 0.997.
On to TAATATAGCA, for which the switch fluorescence ratio is 1.02.
As to TGGCCATTG, the switch fluorescence ratio worked out at 0.91.
The result for AGGTGGGAAG reads 0.952; that for GCTCTCAATG, 1.19; that for CTCGTAGAGC, 0.896.
In the case of TTAGTCGGCC it was 0.995; in that of AGTCCTGCCC, 1.08.
Regarding CCCTTGTTAT, the switch fluorescence ratio worked out at 0.993.
Consider GGAGGTTTCG, for which the switch fluorescence ratio was found to be 1.02.
In the case of GTAATTAGTG, the switch fluorescence ratio was found to be 1.01.
Take GGTACAGGAA: the switch fluorescence ratio was 1.04.
The result for CGATAGTGTC reads 0.937; that for GTTCATCCAT, 1.01.
With AGGGGCGCGT, the switch fluorescence ratio was 0.968.
The result for TGAATGCTC reads 1.01; that for GACTTGGGCA, 1.02; that for ATAGTTTTCA, 1.
The result for TTCTCTAATT reads 1.07; that for TTAGGTACAG, 1.02; that for GTCATACGAT, 1.01.
On to TCATAGGTC, for which the switch fluorescence ratio amounted to 0.991.
In the case of TGATAAAGAG it was 0.984; in that of GAGGCTTTAA, 0.998.
Turning to TTTTGACCCA, the switch fluorescence ratio amounted to 1.02.
On to CCACTGACTG, for which the switch fluorescence ratio turned out to be 1.17.
TCAGAGGCAC: the switch fluorescence ratio was 1.1.
The result for CGACTACATG reads 1.02; that for TAGAAAGTAT, 1; that for TTTGCTCAGT, 0.98.
Consider ACGATGGATA, for which the switch fluorescence ratio was found to be 1.01.
The result for TGGGAATAAA reads 0.968; that for TTAGAGTCGA, 0.971; that for CCTGCGTAAT, 4.39.
As to CAAGTCTTGA, the switch fluorescence ratio came to 0.997.
As for CCACGGGGAA, the switch fluorescence ratio was determined as 1.04.
The result for CGCTGATATG reads 1.03; that for GCAGGCATTG, 0.98.
Take ATCGCTCCTT: the switch fluorescence ratio stood at 1.06.
Take AAGGGGAAAC: the switch fluorescence ratio came out at 1.07.
Regarding CATGACAAGG, the switch fluorescence ratio was 1.03.
Take ACGGCCACTA: the switch fluorescence ratio is 1.26.
In the case of TTGATTCACG it was 1.01; in that of GTTTTCTTTT, 1.03.
